Laboratory results published in patent publication US6500842B1, “8-hydroxy-7-substituted quinolines as anti-viral agents” (Pharmacia & Upjohn Company, priority 1996, dated 2002).
“And” between values parts separate entries of the source, which are not always exact repeats. Equal values may be shown once. The name of at least one read-out is uncertain.

Molecular target: T1, HCMV polymerase (Human cytomegalovirus, UniProt P08546)
T1 construct: made in house; host or cells: recombinant baculovirus-infected SF-9 cells
T1 sequence (P08546 whole entry): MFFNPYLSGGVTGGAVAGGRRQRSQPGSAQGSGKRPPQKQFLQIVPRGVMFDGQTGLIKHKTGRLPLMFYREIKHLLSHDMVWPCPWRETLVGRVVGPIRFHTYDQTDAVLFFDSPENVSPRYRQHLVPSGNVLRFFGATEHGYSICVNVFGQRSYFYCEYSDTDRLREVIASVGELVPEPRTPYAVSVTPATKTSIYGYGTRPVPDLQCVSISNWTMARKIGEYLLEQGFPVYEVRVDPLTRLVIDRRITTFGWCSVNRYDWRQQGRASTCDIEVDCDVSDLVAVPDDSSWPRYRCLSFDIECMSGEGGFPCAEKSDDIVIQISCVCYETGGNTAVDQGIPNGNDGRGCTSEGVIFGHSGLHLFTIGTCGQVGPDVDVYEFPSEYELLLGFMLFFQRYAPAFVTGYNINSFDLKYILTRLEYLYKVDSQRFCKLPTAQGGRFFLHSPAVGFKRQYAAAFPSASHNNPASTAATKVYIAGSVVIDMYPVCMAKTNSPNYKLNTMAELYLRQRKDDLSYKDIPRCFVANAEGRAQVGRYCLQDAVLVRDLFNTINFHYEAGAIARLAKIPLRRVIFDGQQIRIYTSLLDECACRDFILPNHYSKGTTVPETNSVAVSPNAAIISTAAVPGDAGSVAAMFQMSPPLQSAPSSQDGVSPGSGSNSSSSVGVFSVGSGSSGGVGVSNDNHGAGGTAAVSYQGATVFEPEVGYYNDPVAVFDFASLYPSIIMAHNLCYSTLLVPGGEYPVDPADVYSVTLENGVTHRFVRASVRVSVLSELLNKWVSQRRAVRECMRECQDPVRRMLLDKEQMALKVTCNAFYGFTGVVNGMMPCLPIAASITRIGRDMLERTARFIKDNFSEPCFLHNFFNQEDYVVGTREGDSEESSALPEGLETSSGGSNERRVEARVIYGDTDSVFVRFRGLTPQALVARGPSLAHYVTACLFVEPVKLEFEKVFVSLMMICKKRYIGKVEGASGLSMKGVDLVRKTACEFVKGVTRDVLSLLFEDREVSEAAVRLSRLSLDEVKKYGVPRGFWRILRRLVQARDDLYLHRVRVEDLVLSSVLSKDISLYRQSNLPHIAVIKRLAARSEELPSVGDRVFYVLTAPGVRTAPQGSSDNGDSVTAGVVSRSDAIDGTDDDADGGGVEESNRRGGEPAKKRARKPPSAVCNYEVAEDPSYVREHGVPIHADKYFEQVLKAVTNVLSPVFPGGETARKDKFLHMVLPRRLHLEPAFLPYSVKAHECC
Assay: HCMV polymerase assay (scintillation proximity assay)
Type: biochemical
Conditions: for CMV pol Assay % Inhib: Table 1
Procedure: The HCMV polymerase assay is performed using a scintillation proximity assay (SPA) as described in several references, such as N. D. Cook, et al., Pharmaceutical Manufacturing International, pages 49-53 (1992); K. Takeuchi, Laboratory Practice, September issue (1992); U.S. Pat. No. 4,568,649 (1986); which are incorporated by reference herein. Reactions are performed in 96-well plates. The assay is conducted in 100 μl volume with 5.4 mM HEPES (pH 7.5), 11.7 mM KCl, 4.5 mM MgCl2, 0.36 mg/ml BSA, and 90 nM ^3H-dTTP. Assays are run with and without CHAPS, (3-[(3-Cholamidopropyl)-dimethylammonio]-1-propane-sulfonate) at a final concentration of 2 mM. HCMV is diluted in enzyme dilution buffer containing 50% glycerol, 250 mM NaCl, 10 mM HEPES (pH 7.5), 100 pg/ml BSA, and 0.01% sodium azide. The HCMV polymerase, which is expressed in recombinant baculovirus-infected SF-9 cells and purified according to literature procedures, is added at 10% (or 10 μl) of the final reaction volume, i.e., 100 μl. Compounds are diluted in 50% DMSO and 10 μl are added to each well. Control wells contain an equivalent concentration of DMSO. Unless noted otherwise, reactions are initiated via the addition of 6 nM biotinylated poly(dA)-oligo(dT) template/primer to reaction mixtures containing the enzyme, substrate, and compounds of interest. Plates are incubated in a 25° C. of 37° C. H2O bath and terminated via the addition of 40 μl/reaction of 0.5 M EDTA (pH 8) per well. Reactions are terminated within the time-frame during which substrate incorporation is linear and varied depending upon the enzyme and conditions used, i.e., 30 min. for HCMV polymerase. Ten μl of streptavidin-SPA beads (20 mg/ml in PBS/10% glycerol) are added following termination of the reaction. Plates are incubated 10 min. at 37° C., then equilibrated to room temperature, and counted on a Packard Topcount. Linear regressions are performed and IC50's are calculated using computer software. Results of the testing of compounds of the present invention in this assay are shown in Tables 1, 2, 5, 9, 10, 11, 13 (except for the last compound which was tested under modified conditions) and 14 below.

[1] = Table 5, Conc 1.00e-004 M, pol type CMV
[2] = Table 5, Conc 1.30e-005 M, pol type CMV
[3] = Table 5, Conc 2.50e-005 M, pol type CMV
[4] = Table 5, Conc 3.13e-006 M, pol type CMV
[5] = Table 5, Conc 5.00e-005 M, pol type CMV
[6] = Table 5, Conc 6.25e-006 M, pol type CMV
[7] = Table 10, Conc 2.50e-005 M, pol type CMV
[8] = Table 10, Conc 1.00e-004 M, pol type CMV
[9] = Table 10, Conc 1.30e-005 M, pol type CMV
[10] = Table 10, Conc 3.13e-006 M, pol type CMV
[11] = Table 10, Conc 5.00e-005 M, pol type CMV
[12] = Table 10, Conc 6.25e-006 M, pol type CMV
[13] = Table 10, Conc 1.56e-006 M, pol type CMV

O=C(NCc1ccc(Cl)cc1)c1ccc2ccc(/C=C/c3ccccc3)nc2c1O [Example 51, N-[(4-Chlorophenyl)methyl]-8-hydroxy-2-(2-phenylethenyl)-7-quinolinecarboxamide]
% Inhib [1]: 98.7% and 98.4% | % Inhib [2]: 96.8% and 94.2% | % Inhib [3]: 96.9% and 98.2% | % Inhib [4]: 97.1% and 60.2% | % Inhib [5]: 97.9% and 98.7% | % Inhib [6]: 96.6% and 86.7%

CC(C)(C)c1ccc2c(Cl)cc(S(=O)(=O)NCc3ccc(Cl)cc3)c(O)c2n1 [Example 19, 5-Chloro-N-[(4-chlorophenyl)methyl]-2-(1,1-dimethylethyl)-8-hydroxy-7-quinolinesulfonamide]
% Inhib (Conc 1.00e−004 M, Table 2): 83.9% | % Inhib (Conc 1.30e−005 M, Table 2): 28.9% | % Inhib (Conc 2.50e−005 M, Table 2): 56.6% | % Inhib (Conc 3.13e−006 M, Table 2): 11.8% | % Inhib (Conc 5.00e−005 M, Table 2): 69.1% | % Inhib (Conc 6.25e−006 M, Table 2): 20%

O=C(Nc1ccc(Cl)cc1Cl)c1ccc2cccnc2c1O
% Inhib [7]: 29.3%

O=C(Nc1ccc(Br)cc1F)c1ccc2cccnc2c1O
% Inhib [8]: 87.9% | % Inhib [9]: 66.5% | % Inhib [7]: 67% and 79.4% | % Inhib [10]: 27.4% | % Inhib [11]: 85.9% | % Inhib [12]: 47.9%

O=C(Nc1cccc2ccccc12)c1ccc2cccnc2c1O
% Inhib [9]: 86.3% | % Inhib [13]: 23.8% | % Inhib [7]: 91.3% and 98.5% | % Inhib [10]: 32.2% | % Inhib [11]: 99.5% | % Inhib [12]: 53%

O=C(Nc1cccc(I)c1)c1ccc2cccnc2c1O
% Inhib [9]: 87.7% | % Inhib [13]: 13.9% | % Inhib [7]: 98% and 95.4% | % Inhib [10]: 23% | % Inhib [11]: 99.6% | % Inhib [12]: 47.4%

O=C(Nc1ccc(F)cc1F)c1ccc2cccnc2c1O
% Inhib [9]: 20.6% | % Inhib [13]: 2.1% | % Inhib [10]: 13.6% | % Inhib [11]: 93.9% | % Inhib [12]: 14.3%

O=C(Nc1ccc(Br)c2ccccc12)c1ccc2cccnc2c1O
% Inhib [7]: 30.5%

O=C(Nc1ccc(Cl)c(Cl)c1)c1ccc2cccnc2c1O
% Inhib [8]: 51.4% | % Inhib [9]: 19.9% | % Inhib [7]: 71.5% and 59.5% | % Inhib [10]: 9.8% | % Inhib [11]: 69.9% | % Inhib [12]: 15.5%

Cc1ccc(Cl)c(NC(=O)c2ccc3cccnc3c2O)c1
% Inhib [9]: 68.3% | % Inhib [13]: 22.4% | % Inhib [7]: 96.6% and 99% | % Inhib [10]: 26.3% | % Inhib [11]: 99.4% | % Inhib [12]: 33.1%

O=S(=O)(NCCc1ccc(Cl)cc1)c1cc(Cl)c2cccnc2c1O [Example 23, 5-Chloro-N-[2-(4-chlorophenyl)ethyl]-8-hydroxy-7-quinoline-sulfonamide]
% Inhib (Conc 1.00e−004 M, Table 2): 98.3% | % Inhib (Conc 1.00e−005 M, Table 2): 99.9% | % Inhib (Conc 1.25e−006 M, Table 2): 14.7% | % Inhib (Conc 1.30e−005 M, Table 2): 98.8% | % Inhib (Conc 2.50e−005 M, Table 2): 99.4% | % Inhib (Conc 2.50e−006 M, Table 2): 34.6% | % Inhib (Conc 3.13e−006 M, Table 2): 48% | % Inhib (Conc 3.13e−007 M, Table 2): 16.3% | % Inhib (Conc 5.00e−005 M, Table 2): 99.4% | % Inhib (Conc 5.00e−006 M, Table 2): 83.9% | % Inhib (Conc 6.25e−006 M, Table 2): 90.9% | % Inhib (Conc 6.25e−007 M, Table 2): 13%

N#Cc1c(F)c(F)c(NC(=O)c2ccc3cccnc3c2O)c(F)c1F
% Inhib [9]: 30% | % Inhib [13]: 12.3% | % Inhib [7]: 63.9% and 72% | % Inhib [10]: 15.9% | % Inhib [11]: 99.6% | % Inhib [12]: 9%

Cc1ccc(NC(=O)c2ccc3cccnc3c2O)c(C)c1 [drawing 223]
% Inhib [8]: 65.8% and 102.8%

O=C(Nc1ccccc1-c1ccccc1)c1ccc2cccnc2c1O
% Inhib [9]: 92.8% | % Inhib [13]: 23.3% | % Inhib [7]: 97.5% and 98.4% | % Inhib [10]: 30.1% | % Inhib [11]: 99.5% | % Inhib [12]: 61.5%

O=C(NCc1ccc(Cl)cc1)c1ccc2cccnc2c1O [Example 1, N-[(4-Chlorophenyl)methyl]-8-hydroxy-7-quinolinecarboxamide]
CMV pol Assay % Inhib (Conc 1.00E−04 M): 100% | CMV pol Assay % Inhib (Conc 1.30E−05 M): 66.2% | CMV pol Assay % Inhib (Conc 2.50E−05 M): 94.7% | CMV pol Assay % Inhib (Conc 3.13E−06 M): −1.5% | CMV pol Assay % Inhib (Conc 5.00E−05 M): 98.6% | CMV pol Assay % Inhib (Conc 6.25E−06 M): 22.8%

Cc1ccc2c(Cl)cc(S(=O)(=O)NCCc3ccc(Cl)cc3Cl)c(O)c2n1 [Example 25, 5-Chloro-N-[2-(2,4-dichlorophenyl)ethyl]-8-hydroxy-2-methyl-7-quinolinesulfonamide]
% Inhib (Conc 1.00e−004 M, Table 2): 87.6% | % Inhib (Conc 1.30e−005 M, Table 2): 69.4% | % Inhib (Conc 2.50e−005 M, Table 2): 76.6% | % Inhib (Conc 3.13e−006 M, Table 2): 48.7% | % Inhib (Conc 5.00e−005 M, Table 2): 83.7% | % Inhib (Conc 6.25e−006 M, Table 2): 63.3%

Cl.O=C(Nc1ccc2c(c1)OCO2)c1ccc2cccnc2c1O
% Inhib [8]: 100% | % Inhib [9]: 39.1% | % Inhib [7]: 75.6% | % Inhib [10]: −4.2% | % Inhib [11]: 98.2% | % Inhib [12]: 11.9%

O=C(NCc1ccc(Cl)cc1)c1ccc2ccc(C(F)(F)F)nc2c1O [Example 55, N-[(4-Chlorophenyl)methyl]-8-hydroxy-2-(trifluoromethyl)-7-quinolinecarboxamide]
% Inhib [1]: 73.5% | % Inhib [2]: 27.7% | % Inhib [3]: 42.9% | % Inhib [4]: 17.2% | % Inhib [5]: 51.4% | % Inhib [6]: 27.4%

O=C(Nc1ccc2[nH]ncc2c1)c1ccc2cccnc2c1O
% Inhib [8]: 99.7% | % Inhib (Table 10, Conc 1.00e-005 M, pol type CMV): 99.5% | % Inhib (Table 10, Conc 1.25e-006 M, pol type CMV): 19.8% | % Inhib [9]: 99% | % Inhib [7]: 84% and 99.2% | % Inhib (Table 10, Conc 2.50e-006 M, pol type CMV): 37.9% | % Inhib [10]: 70.9% | % Inhib (Table 10, Conc 3.13e-007 M, pol type CMV): 15.5% | % Inhib [11]: 99.1% | % Inhib (Table 10, Conc 5.00e-006 M, pol type CMV): 82.7% | % Inhib [12]: 94.5% | % Inhib (Table 10, Conc 6.25e-007 M, pol type CMV): 19.5%

O=C(Nc1cc(Cl)cc(Cl)c1)c1ccc2cccnc2c1O
% Inhib [7]: 30.6%

O=C(Nc1ccc(I)cc1F)c1ccc2cccnc2c1O
% Inhib [7]: 83%

Cc1ccc2c(Cl)cc(S(=O)(=O)NCc3cccc(Cl)c3)c(O)c2n1 [Example 33, 5-Chloro-N-[(3-chlorophenyl)methyl]-8-hydroxy-2-methyl-7-quinolinesulfonamide]
% Inhib (Conc 1.00e−004 M, Table 2): 95.4% | % Inhib (Conc 1.30e−005 M, Table 2): 45.7% | % Inhib (Conc 2.50e−005 M, Table 2): 78% | % Inhib (Conc 3.13e−006 M, Table 2): −10.5% | % Inhib (Conc 5.00e−005 M, Table 2): 87.9% | % Inhib (Conc 6.25e−006 M, Table 2): 38.7%

O=S(=O)(NCc1ccc(Cl)cc1)c1cc(Cl)c2cccnc2c1O [Example 18, 5-Chloro-N-[(4-chlorophenyl)methyl]-8-hydroxy-7-quinoline-sulfonamide]
% Inhib (Conc 1.00e−004 M, Table 2): 91.8% | % Inhib (Conc 1.30e−005 M, Table 2): 13.9% | % Inhib (Conc 2.50e−005 M, Table 2): 51.7% | % Inhib (Conc 3.13e−006 M, Table 2): 5.3% | % Inhib (Conc 5.00e−005 M, Table 2): 79.6% | % Inhib (Conc 6.25e−006 M, Table 2): 14.9%

Cc1ccc2c(Cl)cc(S(=O)(=O)NCC3CCCCC3)c(O)c2n1 [Example 32, 5-Chloro-N-(cyclohexylmethyl)-8-hydroxy-2-methyl-7-quinolinesulfonamide]
% Inhib (Conc 1.00e−004 M, Table 2): 98.2% | % Inhib (Conc 1.00e−005 M, Table 2): 85.2% | % Inhib (Conc 1.25e−006 M, Table 2): 20.6% | % Inhib (Conc 1.30e−005 M, Table 2): 94.6% | % Inhib (Conc 2.50e−005 M, Table 2): 96.3% | % Inhib (Conc 2.50e−006 M, Table 2): 30.4% | % Inhib (Conc 3.13e−006 M, Table 2): 75.1% | % Inhib (Conc 3.13e−007 M, Table 2): −14.4% | % Inhib (Conc 5.00e−005 M, Table 2): 97.5% | % Inhib (Conc 5.00e−006 M, Table 2): 47.9% | % Inhib (Conc 6.25e−006 M, Table 2): 89.1% | % Inhib (Conc 6.25e−007 M, Table 2): 9.8%

CCCc1ccc(NC(=O)c2ccc3cccnc3c2O)cc1
% Inhib [8]: 100% | % Inhib [9]: 97.6% | % Inhib [7]: 95% and 99.8% | % Inhib [10]: 33.5% | % Inhib [11]: 99.7% | % Inhib [12]: 77.7%

CSc1cccc(NC(=O)c2ccc3cccnc3c2O)c1
% Inhib [9]: 19.5% | % Inhib [13]: 7.7% | % Inhib [7]: 91.9% and 57.3% | % Inhib [10]: 15.2% | % Inhib [11]: 91.1% | % Inhib [12]: 11.9%
